Laboratory results taken from the supplement of paper PMC4967469.
The IC50 comes from the fitted curve, where viability falls to half of the control; fits outside the tested doses are given as limits. AUC sums up the same curve from the lowest dose to the 256-fold higher top dose; it is 1 without any effect and falls as sensitivity rises. For some of these results: Where the top dose is marked as inferred, it is not printed in the source and was worked back from the curve model. For some of these results: Drugs with an entry number were screened twice under separate entries, and the two screens often disagree.

Legend:
Assay in all cases: Viability of human cancer cell lines after 72 h of drug (GDSC screen)
Cytarabine = compound: Nc1ccn([C@@H]2O[C@H](CO)[C@@H](O)[C@@H]2O)c(=O)n1 [Cytarabine]; conditions: top dose 2 µM
Method: (§1)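 Human cancer cell lines in 384-well plates, medium with 10% serum, drug for 72 h over a 256-fold dose range (nine 2-fold or five 4-fold steps up to the top dose). Adherent lines were fixed and stained with the nucleic acid dye Syto60, suspension lines read with resazurin; signal relative to control wells, capped at 0 and 100%. One two-parameter sigmoid per drug and line, fitted in a mixed model over all curves with the slope shared within a line.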

Zibotentan = compound: COc1nc(C)cnc1NS(=O)(=O)c1cccnc1-c1ccc(-c2nnco2)cc1 [Zibotentan]; conditions: top dose 20 µM; top dose inferred
Method: as §1

CP466722 = compound: COc1cc2ncnc(-n3nc(-c4ccccn4)nc3N)c2cc1OC [CP466722]; conditions: top dose 16 µM; top dose inferred
Method: as §1

ABT-888 = compound: C[C@]1(c2nc3c(C(N)=O)cccc3[nH]2)CCCN1 [ABT-888]; conditions: top dose 5 µM; top dose inferred
Method: as §1

KU-55933 = compound: O=c1cc(-c2cccc3c2Sc2ccccc2S3)oc(N2CCOCC2)c1 [KU-55933]; conditions: top dose 10 µM
Method: as §1

GSK269962A = compound: CCn1c(-c2nonc2N)nc2cnc(Oc3cccc(NC(=O)c4ccc(OCCN5CCOCC5)cc4)c3)cc21 [GSK269962A]; conditions: top dose inferred
Method: as §1

(5Z)-7-Oxozeaenol = compound: COc1cc(O)c2c(c1)/C=C/C[C@H](O)[C@H](O)C(=O)/C=C\C[C@H](C)OC2=O [(5Z)-7-Oxozeaenol]; conditions: top dose 10 µM; top dose inferred
Method: as §1

CHIR-99021 = compound: Cc1cnc(-c2cnc(NCCNc3ccc(C#N)cn3)nc2-c2ccc(Cl)cc2Cl)[nH]1 [CHIR-99021]
Method: as §1

ABT-869 = compound: Cc1ccc(F)c(NC(=O)Nc2ccc(-c3cccc4[nH]nc(N)c34)cc2)c1 [ABT-869]; conditions: top dose 1.024 µM; top dose inferred
Method: as §1

QL-X-138 = compound: C=CC(=O)Nc1cc(-n2c(=O)ccc3cnc4ccc(-c5cn[nH]c5)cc4c32)ccc1C [QL-X-138]; conditions: top dose 10.24 µM; top dose inferred
Method: as §1

Thapsigargin = compound: C/C=C(/C)C(=O)O[C@H]1C(C)=C2[C@H]([C@@H]1OC(=O)CCCCCCC)[C@@](C)(OC(C)=O)C[C@H](OC(=O)CCC)[C@@]1(O)[C@H]2OC(=O)[C@@]1(C)O [Thapsigargin]; conditions: top dose 0.512 µM; top dose inferred
Method: as §1

MPS-1-IN-1 = compound: COc1cc(N2CCC(O)CC2)ccc1Nc1cc(Nc2ccccc2S(=O)(=O)C(C)C)c2cc[nH]c2n1 [MPS-1-IN-1]; conditions: top dose 20 µM; top dose inferred
Method: as §1

[1] = top dose 2.5 µM, screen: GDSC drug entry 127
[2] = top dose 5 µM, screen: GDSC drug entry 1192
[3] = top dose 2.56 µM, screen: GDSC drug entry 154
[4] = top dose 10 µM, screen: GDSC drug entry 1241, top dose inferred

| Cell Line | AUC (Cytarabine) | IC50 (Cytarabine) [µM] | AUC (Zibotentan) | IC50 (Zibotentan) [µM] | AUC (CP466722) | IC50 (CP466722) [µM] | AUC (ABT-888) | IC50 (ABT-888) [µM] | AUC (KU-55933) | IC50 (KU-55933) [µM] | AUC (GSK269962A; [1]) | IC50 (GSK269962A; [1]) [µM] | AUC (GSK269962A; [2]) | IC50 (GSK269962A; [2]) [µM] | AUC ((5Z)-7-Oxozeaenol) | IC50 ((5Z)-7-Oxozeaenol) [µM] | AUC (CHIR-99021; [3]) | IC50 (CHIR-99021; [3]) [µM] | AUC (CHIR-99021; [4]) | IC50 (CHIR-99021; [4]) [µM] | AUC (ABT-869) | IC50 (ABT-869) [µM] | AUC (QL-X-138) | IC50 (QL-X-138) [µM] | AUC (Thapsigargin) | IC50 (Thapsigargin) [µM] | AUC (MPS-1-IN-1) | IC50 (MPS-1-IN-1) [µM] |
| --- | --- | --- | --- | --- | --- | --- | --- | --- | --- | --- | --- | --- | --- | --- | --- | --- | --- | --- | --- | --- | --- | --- | --- | --- | --- | --- | --- | --- |
| JURL-MK1 (chronic myeloid leukaemia, suspension) | 0.401 | 0.067 | 0.979 | > 20 | 0.648 | 2.56 | 0.94 | > 5 | 0.972 | > 10 | 0.975 | > 2.5 | 0.937 | > 5 | 0.751 | 3.28 | 0.978 | > 2.56 | 0.977 | > 10 | 0.985 | > 1.02 | 0.603 | 1.23 | 0.403 | 0.0173 | 0.927 | > 20 |
| K2 (melanoma, adherent) | 0.687 | 0.493 | 0.979 | > 20 | 0.869 | > 16 | 0.971 | > 5 | 0.982 | > 10 |  |  | 0.888 | > 5 | 0.181 | 0.0486 | 0.913 | > 2.56 | 0.931 | > 10 | 0.982 | > 1.02 | 0.805 | 7.1 | 0.416 | 0.0176 | 0.919 | > 20 |
| KMH-2 (thyroid, adherent) | 0.758 | 0.628 | 0.99 | > 20 | 0.784 | 6.01 | 0.984 | > 5 | 0.99 | > 10 |  |  | 0.854 | 3.29 | 0.427 | 0.404 | 0.964 | > 2.56 | 0.955 | > 10 | 0.968 | > 1.02 | 0.664 | 1.73 | 0.111 | 0.00216 | 0.916 | > 20 |
| KMRC-1 (kidney, adherent) | 0.827 | 1.32 | 0.986 | > 20 | 0.945 | > 16 | 0.946 | > 5 | 0.986 | > 10 |  |  | 0.783 | 2.24 | 0.571 | 0.991 | 0.962 | > 2.56 | 0.934 | > 10 | 0.982 | > 1.02 | 0.902 | > 10.2 | 0.962 | > 0.512 | 0.984 | > 20 |
| KMRC-20 (kidney, adherent) | 0.841 | 1.42 | 0.989 | > 20 | 0.982 | > 16 | 0.989 | > 5 | 0.95 | > 10 |  |  | 0.907 | > 5 | 0.888 | > 10 | 0.989 | > 2.56 | 0.988 | > 10 | 0.984 | > 1.02 | 0.969 | > 10.2 | 0.974 | > 0.512 | 0.989 | > 20 |
| KP-3 (pancreas, adherent) | 0.783 | 1.02 | 0.982 | > 20 | 0.768 | 7.12 | 0.984 | > 5 | 0.984 | > 10 |  |  | 0.883 | > 5 | 0.721 | 3.02 | 0.983 | > 2.56 | 0.951 | > 10 | 0.98 | > 1.02 | 0.867 | > 10.2 | 0.29 | 0.00724 | 0.897 | > 20 |
| KYSE-50 (oesophagus, adherent) | 0.874 | 1.67 | 0.989 | > 20 | 0.834 | 9.16 | 0.99 | > 5 | 0.973 | > 10 |  |  | 0.989 | > 5 | 0.863 | 7.46 | 0.975 | > 2.56 | 0.963 | > 10 | 0.965 | > 1.02 | 0.75 | 3.09 | 0.215 | 0.00515 | 0.746 | 5.86 |
| KYSE-150 (oesophagus, adherent) | 0.987 | > 2 | 0.99 | > 20 | 0.906 | > 16 | 0.943 | > 5 | 0.984 | > 10 |  |  | 0.984 | > 5 | 0.817 | 5.29 | 0.981 | > 2.56 | 0.988 | > 10 | 0.988 | > 1.02 | 0.828 | 5.98 | 0.196 | 0.00421 | 0.925 | > 20 |
| KYSE-220 (oesophagus, adherent) | 0.824 | 1.28 | 0.985 | > 20 | 0.847 | 12.8 | 0.983 | > 5 | 0.977 | > 10 |  |  | 0.959 | > 5 | 0.806 | 5.42 | 0.985 | > 2.56 | 0.949 | > 10 | 0.979 | > 1.02 | 0.804 | 5.46 | 0.266 | 0.00661 | 0.897 | > 20 |
| KYSE-450 (oesophagus, adherent) | 0.838 | 1.24 | 0.987 | > 20 | 0.791 | 6.77 | 0.977 | > 5 | 0.962 | > 10 |  |  | 0.941 | > 5 | 0.822 | 5.43 | 0.953 | > 2.56 | 0.874 | 8.8 | 0.987 | > 1.02 | 0.577 | 1.02 | 0.18 | 0.00375 | 0.723 | 5.13 |
